Data published in PubChem BioAssay AID686979 (National Center for Advancing Translational Sciences (NCATS), 2013).
The campaign covered roughly 420,000 compounds. About 50,000 (12%) were called active. The shares of active, inactive and inconclusive entries below differ from those in the screen. The call rests on the fitted dose curve; in most records, active means well fitted inhibition curve with a large enough effect; inconclusive means small, poorly fitted or top-dose-only effect; inactive means flat fitted curve, though single readings scatter. Potencies of inconclusive entries are left out as doubtful fits.

Assay: qHTS for Inhibitors of human tyrosyl-DNA phosphodiesterase 1 (TDP1): qHTS in cells in presence of CPT; further: nearly all actives have a fitted effect of over 55% in size
Settings: chicken DT40 Tdp1-/-;hTDP1 cells + 20 nM CPT, ATP luminescence, 48 h; activity change, negative = growth inhibition: at 46.2 µM (top of the series) unless noted
Outline: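 Cell growth measured by CellTiter-Glo luminescence after a minimum 48 h, 37 C compound exposure with 20 nM CPT in Tdp1-knockout DT40 cells stably expressing hTDP1, seeded 400/well; qHTS titration format.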
On the % scale 0 is the no-effect control and ±100 the full control effect; potency means the concentration at half of the fitted maximal effect; tags describe the fitted curve by direction and shape.

Row | Structure (SMILES) | Potency | activity change, negative = growth inhibition
1 | Cc1cc(C)cc(C(O)c2ncc(-c3ccc(Cl)cc3)[nH]2)c1 (centres undefined) | inconclusive [inhibitor, single point] | –
2 | Cc1cccc(C(=O)Nc2sc3c(c2C(=O)NC(C)C)CCCC3)c1 | inconclusive [inhibitor, single point] | –
3 | CCCCCC(=O)Nc1cccc(C2=NOC3(C2)C[C@@H](C(N)=O)N(C(=O)c2cc([N+](=O)[O-])cc([N+](=O)[O-])c2C)C3)c1 (some centres undefined) | inconclusive [inhibitor, single point] | –
4 | CCOC(=O)C1CCCN(C(=O)c2ccc3ccccc3c2)CC1 (centres undefined) | inconclusive [inhibitor, single point] | –
5 | Cn1c(=O)c2c(nc(NCCc3ccccc3)n2Cc2ccc(Cl)cc2)n(C)c1=O | active: 11.6 µM | –
6 | Cc1ccc(C2=NN=C(NC(=O)CSc3nncn3C)SC2)cc1 | inconclusive [inhibitor, single point] | –
7 | CCc1cc(C(=O)Nc2ccccc2N2CCOCC2)sc1C | inconclusive [inhibitor, single point] | –
8 | Cc1cc2nccc(-c3ccc(Cl)cc3Cl)n2n1 | inconclusive [inhibitor, single point] | –
9 | CCCCc1ccc(S(=O)(=O)N2CCN(C(=O)c3ccco3)CC2)cc1 | inconclusive [inhibitor, partial curve] | –
10 | CCOC(=O)C(=O)c1csc(NC(=O)CCSc2ccc(C)cc2)n1 | inactive | –
11 | COc1ccc([C@H]2C[C@H](n3cc(-c4ccc(F)cc4)nn3)[C@@H](O)CN2CC2CCCCC2)cc1 | inconclusive [inhibitor, single point] | –
12 | COC(=O)c1ccc(C(=O)NC2CCCN(Cc3ccc(Cl)cc3)C2)nc1 (centres undefined) | inconclusive [inhibitor, single point] | –
13 | Cc1cc2cc(CNC(=S)Nc3ccc(OC(F)(F)F)cc3)ccc2n1C | inconclusive [inhibitor, single point] | –
14 | S=C(NCCc1ccccc1)N1CCc2ccccc2C1 | inconclusive [inhibitor, single point] | –
15 | O=C(c1cc(COc2ccc(F)c(F)c2)on1)N1CCN(C2CCCCC2)C(=O)C1 | inconclusive [inhibitor, single point] | –
16 | Cc1cc(=O)oc2cc(OCC(=O)OCC(=O)NCc3ccc4c(c3)OCO4)ccc12 | inactive | –
17 | COc1ccc(Cl)cc1NC(=O)CCN1CCN(c2ccccc2C)CC1 | inconclusive [inhibitor, single point] | –

Row | Structure (SMILES) | Potency | activity change, negative = growth inhibition
18 | O=C(COC(=O)CSc1ccc(F)cc1)NCc1ccco1 | inconclusive [inhibitor, single point] | –
19 | C=CCc1ccccc1OCC(O)CNC (centres undefined) | inactive | –
20 | CC(C)CCNC(=O)C(c1ccc(O)cc1)N(Cc1cccs1)C(=O)C1COc2ccccc2O1 (centres undefined) | active: 23.1 µM | –
21 | CC1(C(=O)Nc2cnc3ccccc3c2)CCN1Cc1ccc(OC(F)(F)F)cc1 (centres undefined) | inconclusive [inhibitor, single point] | –
22 | COC(=O)c1ccc2c(c1)NC(=O)C(N1CCCCC1)S2 (centres undefined) | inconclusive [inhibitor, single point] | –
23 | CCn1c(CN2CCCCCC2=O)nnc1SCc1cnc(-c2ccccc2)s1 | inconclusive [inhibitor, single point] | –
24 | CCc1ccccc1NC(=O)[C@@H](c1ccccc1)N1Cc2ccccc2C1=O | – | inconclusive: -31.2% [inhibitor]
25 | Cc1ccc(NC(=O)CCCn2c(=O)c3cccn3c3cccnc32)cc1C | inconclusive [inhibitor, single point] | –
26 | CCN1C(=O)[C@@H]2[C@@H]3CN(S(=O)(=O)c4ccc(C)cc4)[C@@H](c4ccccc4Cl)[C@@H]3C(=O)C[C@@H]2C1=O | inconclusive [inhibitor, partial curve, poor fit] | –
27 | Fc1ccc(-c2nnc(Cc3nnc(-c4ccc(F)cc4)o3)o2)cc1 | inactive | –
28 | Cc1ccc(NS(=O)(=O)c2cc3[nH]c(=O)c(=O)[nH]c3cc2C)cc1N(C)C | inactive | –
29 | Cc1ccc(C)c(NC(=O)CSc2nnc(-c3cc4occc4n3C)n2-c2ccccc2C)c1 | inconclusive [inhibitor, single point] | –
30 | CN(c1ccccc1C(=O)NCc1ccccc1Cl)S(=O)(=O)c1ccccc1 | inconclusive [inhibitor, single point] | –
31 | CCn1c(SCC(=O)c2ccccc2)nc2c(c1=O)SC(C)C2 (centres undefined) | – | inconclusive: -34.6% [inhibitor]
32 | COc1cc2c(c(OC)c1OC)-c1ccc(SC)c(=O)cc1C(NC=O)CC2 (centres undefined) | active: 0.13 µM | –
33 | CN(CC(=O)Nc1cccc(F)c1)C(=O)c1cccc(S(=O)(=O)N2CCN(Cc3ccccc3)CC2)c1 | active: 8.2 µM | –
34 | COc1cc(OC)c(NC(=O)c2noc3c2CSc2ccccc2-3)cc1Cl | inactive | –
